# The supplement of paper PMC8728848
# Some of the results follow.
# Legend:
# Experiment in all cases: glycan array binding signal (z-score within array); higher = stronger binding
# Details in all cases: glycan notation: IUPAC condensed, linker removed
# [1] = molecular target: GlcNAc(b1-3)Gal(b1-4)GlcNAc(b1-3)Gal(b1-4)GlcNAc(b1-2)Man(a1-3)[GlcNAc(b1-3)Gal(b1-4)GlcNAc(b1-3)Gal(b1-4)GlcNAc(b1-2)Man(a1-6)]Man(b1-4)GlcNAc(b1-4)[Fuc(a1-6)]GlcNAc
# Procedure, shortened: (§1)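 Glycan array data came from 3228 arrays in the Consortium for Functional Glycomics database, and only arrays with an available protein sequence were kept. Glycan names were put into IUPAC-condensed notation, and columns mapping to the same glycan were averaged. The binding signal is a within-array Z-score, averaged across arrays of one protein sequence run at different concentrations or buffers and across linkers. A negative Z-score can be read as non-binding.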
# [2] = molecular target: GlcNAc(b1-3)Gal(b1-4)GlcNAc(b1-3)Gal(b1-4)GlcNAc(b1-2)[GlcNAc(b1-3)Gal(b1-4)GlcNAc(b1-3)Gal(b1-4)GlcNAc(b1-6)]Man(a1-6)[GlcNAc(b1-3)Gal(b1-4)GlcNAc(b1-3)Gal(b1-4)GlcNAc(b1-2)Man(a1-3)]Man(b1-4)GlcNAc(b1-4)[Fuc(a1-6)]GlcNAc
# Procedure, shortened: as §1
# [3] = molecular target: GlcNAc(b1-3)Gal(b1-4)GlcNAc(b1-3)Gal(b1-4)GlcNAc(b1-3)Gal(b1-4)GlcNAc(b1-2)Man(a1-3)[GlcNAc(b1-3)Gal(b1-4)GlcNAc(b1-3)Gal(b1-4)GlcNAc(b1-3)Gal(b1-4)GlcNAc(b1-2)Man(a1-6)]Man(b1-4)GlcNAc(b1-4)GlcNAc
# Procedure, shortened: as §1
# [4] = molecular target: GlcNAc(b1-3)Gal(b1-4)GlcNAc(b1-3)Gal(b1-4)GlcNAc(b1-3)Gal(b1-4)GlcNAc(b1-2)Man(a1-3)[GlcNAc(b1-3)Gal(b1-4)GlcNAc(b1-3)Gal(b1-4)GlcNAc(b1-3)Gal(b1-4)GlcNAc(b1-2)Man(a1-6)]Man(b1-4)GlcNAc(b1-4)[Fuc(a1-6)]GlcNAc
# Procedure, shortened: as §1
# [5] = molecular target: GlcNAc(b1-3)Gal(b1-4)GlcNAc(b1-3)Gal(b1-4)GlcNAc(b1-3)Gal(b1-4)GlcNAc(b1-2)[GlcNAc(b1-3)Gal(b1-4)GlcNAc(b1-3)Gal(b1-4)GlcNAc(b1-3)Gal(b1-4)GlcNAc(b1-6)]Man(a1-6)[GlcNAc(b1-3)Gal(b1-4)GlcNAc(b1-3)Gal(b1-4)GlcNAc(b1-3)Gal(b1-4)GlcNAc(b1-2)Man(a1-3)]Man(b1-4)GlcNAc(b1-4)[Fuc(a1-6)]GlcNAc
# Procedure, shortened: as §1
# [6] = molecular target: GlcNAc(b1-3)Gal(b1-4)GlcNAc(b1-3)Gal(b1-4)GlcNAc(b1-3)Gal(b1-4)GlcNAc(b1-3)Gal(b1-4)GlcNAc(b1-2)Man(a1-3)[GlcNAc(b1-3)Gal(b1-4)GlcNAc(b1-3)Gal(b1-4)GlcNAc(b1-3)Gal(b1-4)GlcNAc(b1-3)Gal(b1-4)GlcNAc(b1-2)Man(a1-6)]Man(b1-4)GlcNAc(b1-4)GlcNAc
# Procedure, shortened: as §1
# [7] = molecular target: GlcNAc(b1-3)Gal(b1-4)GlcNAc(b1-3)Gal(b1-4)GlcNAc(b1-3)Gal(b1-4)GlcNAc(b1-3)Gal(b1-4)GlcNAc(b1-2)Man(a1-3)[GlcNAc(b1-3)Gal(b1-4)GlcNAc(b1-3)Gal(b1-4)GlcNAc(b1-3)Gal(b1-4)GlcNAc(b1-3)Gal(b1-4)GlcNAc(b1-2)Man(a1-6)]Man(b1-4)GlcNAc(b1-4)[Fuc(a1-6)]GlcNAc
# Procedure, shortened: as §1
# [8] = molecular target: GlcNAc(b1-3)Gal(b1-4)GlcNAc(b1-3)Gal(b1-4)GlcNAc(b1-3)Gal(b1-4)GlcNAc(b1-3)Gal(b1-4)GlcNAc(b1-2)[GlcNAc(b1-3)Gal(b1-4)GlcNAc(b1-3)Gal(b1-4)GlcNAc(b1-3)Gal(b1-4)GlcNAc(b1-3)Gal(b1-4)GlcNAc(b1-6)]Man(a1-6)[GlcNAc(b1-3)Gal(b1-4)GlcNAc(b1-3)Gal(b1-4)GlcNAc(b1-3)Gal(b1-4)GlcNAc(b1-3)Gal(b1-4)GlcNAc(b1-2)Man(a1-3)]Man(b1-4)GlcNAc(b1-4)[Fuc(a1-6)]GlcNAc
# Procedure, shortened: as §1
# [9] = molecular target: GlcNAc(b1-3)Gal(b1-4)GlcNAc(b1-3)Gal(b1-4)GlcNAc(b1-3)GalNAc
# Procedure, shortened: as §1
# [10] = molecular target: GlcNAc(b1-3)Gal(b1-4)GlcNAc(b1-3)GalNAc
# Procedure, shortened: as §1
# [11] = molecular target: GlcNAc(b1-3)Gal(b1-4)GlcNAc(b1-3)[GlcNAc(b1-3)Gal(b1-4)GlcNAc(b1-3)]GalNAc
# Procedure, shortened: as §1
# [12] = molecular target: GlcNAc(b1-3)Gal(b1-4)GlcNAc(b1-6)[Gal(b1-3)]GalNAc
# Procedure, shortened: as §1
# [13] = molecular target: GlcNAc(b1-3)Gal(b1-4)GlcNAc(b1-6)[GlcNAc(b1-3)Gal(b1-3)]GalNAc
# Procedure, shortened: as §1
# [14] = molecular target: GlcNAc(b1-3)Gal(b1-4)GlcNAc(b1-6)[GlcNAc(b1-3)]Gal(b1-4)GlcNAc
# Procedure, shortened: as §1
# [15] = molecular target: GlcNAc(b1-3)GalNAc
# Procedure, shortened: as §1
# [16] = molecular target: GlcNAc(b1-3)Man
# Procedure, shortened: as §1
# [17] = molecular target: GlcNAc(b1-3)[GlcNAc(b1-4)][GlcNAc(b1-6)]GlcNAc
# Procedure, shortened: as §1
# [18] = molecular target: GlcNAc(b1-3)[GlcNAc(b1-6)]Gal(b1-4)GlcNAc
# Procedure, shortened: as §1
# [19] = molecular target: GlcNAc(b1-3)[GlcNAc(b1-6)]GalNAc
# Procedure, shortened: as §1
# [20] = molecular target: GlcNAc(b1-4)Gal(b1-4)GlcNAc
# Procedure, shortened: as §1
# [21] = molecular target: GlcNAc(b1-4)GlcNAc
# Procedure, shortened: as §1
# [22] = molecular target: GlcNAc(b1-4)GlcNAc(b1-4)GlcNAc
# Procedure, shortened: as §1
# [23] = molecular target: GlcNAc(b1-4)GlcNAc(b1-4)GlcNAc(b1-4)GlcNAc(b1-4)GlcNAc
# Procedure, shortened: as §1
binder,measurement,setting,value
PNGase F (Flavobacterium meningosepticum) (protein) GIPAPADNTVNIKTFDKVKNAFGDGLSQSAEGTFTFPADVTAVKTIKMFIKNECPNKTCDEWDRYANVYVKNKTTGEWYEIGRFITPYWVGTEKLPRGLEIDVTDFKSLLSGNTELKIYTETWLAKGREYSVDFDIVYGTPDYKYSAVVPVVQYNKSSIDGVPYGKAHTLALKKNIQLPTNTEKAYLRTTISGWGHAKPYDAGSRGCAEWCFRTHTIAINNSNTFQHQLGALGCSANPINNQSPGNWTPDRAGWCPGMAVPTRIDVLNNSLIGSTFSYEYKFQNWTNNGTNGDAFYAISSFVIAKSNTPISAPVVTNLDPHHHHHH,glycan array binding signal (z-score),[1],-0.252
same,glycan array binding signal (z-score),[2],-0.351
same,glycan array binding signal (z-score),[3],-0.338
same,glycan array binding signal (z-score),[4],-0.197
same,glycan array binding signal (z-score),[5],-0.258
same,glycan array binding signal (z-score),[6],-0.244
same,glycan array binding signal (z-score),[7],-0.262
same,glycan array binding signal (z-score),[8],-0.3
same,glycan array binding signal (z-score),[9],-0.302
same,glycan array binding signal (z-score),[10],-0.309
same,glycan array binding signal (z-score),[11],-0.117
same,glycan array binding signal (z-score),[12],-0.294
same,glycan array binding signal (z-score),[13],-0.267
same,glycan array binding signal (z-score),[14],-0.336
same,glycan array binding signal (z-score),[15],-0.001
same,glycan array binding signal (z-score),[16],3.03
same,glycan array binding signal (z-score),[17],-0.303
same,glycan array binding signal (z-score),[18],-0.238
same,glycan array binding signal (z-score),[19],-0.217
same,glycan array binding signal (z-score),[20],-0.072
same,glycan array binding signal (z-score),[21],10.4
same,glycan array binding signal (z-score),[22],-0.144
same,glycan array binding signal (z-score),[23],0.03
